Reference: the supplement of paper PMC4604168 (melanoma cell lines)
The other results are listed elsewhere or left out. Many values rest on one well or one pass, so single values are uncertain.

Test system: COLO800
Assay: cell count relative to DMSO control; melanoma cells; higher = more viable cells
Conditions: library dose: standard library concentration; 72 h
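Further: cells treated in 1,536-well plates, then fixed and DAPI-stained, with nuclei counted from automated high-throughput microscope images.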

Compound	cell count
C#Cc1cccc(Nc2ncnc3cc(OCCOC)c(OCCOC)cc23)c1 [erlotinib] + COc1cc2c(Oc3ccc4[nH]c(C)cc4c3F)ncnc2cc1OCCCN1CCCC1 [cediranib] (first compound 4 µM, partner dose 2 µM)	88.7%
Clc1ccc(Nc2nnc(Cc3ccncc3)c3ccccc23)cc1 [vatalanib] + Cn1c(Nc2ccc(C(F)(F)F)cc2)nc2cc(Oc3ccnc(-c4ncc(C(F)(F)F)[nH]4)c3)ccc21 [CHIR265] (first compound 10 µM, partner dose 0.4 µM)	90.4%
Nc1cccc2c1CN(C1CCC(=O)NC1=O)C2=O (stereo not given) [lenalidomide] + CO[C@@H]1[C@H](N(C)C(=O)c2ccccc2)C[C@H]2O[C@]1(C)n1c3ccccc3c3c4c(c5c6ccccc6n2c5c31)C(=O)NC4 [Midostaurin] (first compound 5 µM, partner dose 0.4 µM)	66.6%
Cn1c(Nc2ccc(C(F)(F)F)cc2)nc2cc(Oc3ccnc(-c4ncc(C(F)(F)F)[nH]4)c3)ccc21 + COCC[n+]1c2c(n(Cc3cnccn3)c1C)C(=O)c1ccccc1C2=O [YM155] (first compound 0.4 µM, partner dose 0.002 µM)	104%
Clc1ccc(Nc2nnc(Cc3ccncc3)c3ccccc23)cc1 [vatalanib] + CN(C)S(=O)(=O)c1ccc2c(c1)/C(=C/c1cc3c([nH]1)CCCC3)C(=O)N2 [SU6656] (first compound 10 µM, partner dose 2 µM)	19%
